Measurements from paper PMC4336329 (PLoS ONE, 2015).
In all, about 310,000 compounds went through this assay and about 14,000 (4.5%) showed an effect of 50% or more. The effect is printed as a negative number. Some of the results follow.

molecular target: human ether-à-go-go-related gene (hERG) potassium channel (human, UniProt Q12809); test: primary screen, population patch clamp on CHO cells stably expressing hERG
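Also: peak tail current of the secondary pulse compared with the same well before compound.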

Sequence of human ether-à-go-go-related gene (hERG) potassium channel (Q12809 whole entry, looked up): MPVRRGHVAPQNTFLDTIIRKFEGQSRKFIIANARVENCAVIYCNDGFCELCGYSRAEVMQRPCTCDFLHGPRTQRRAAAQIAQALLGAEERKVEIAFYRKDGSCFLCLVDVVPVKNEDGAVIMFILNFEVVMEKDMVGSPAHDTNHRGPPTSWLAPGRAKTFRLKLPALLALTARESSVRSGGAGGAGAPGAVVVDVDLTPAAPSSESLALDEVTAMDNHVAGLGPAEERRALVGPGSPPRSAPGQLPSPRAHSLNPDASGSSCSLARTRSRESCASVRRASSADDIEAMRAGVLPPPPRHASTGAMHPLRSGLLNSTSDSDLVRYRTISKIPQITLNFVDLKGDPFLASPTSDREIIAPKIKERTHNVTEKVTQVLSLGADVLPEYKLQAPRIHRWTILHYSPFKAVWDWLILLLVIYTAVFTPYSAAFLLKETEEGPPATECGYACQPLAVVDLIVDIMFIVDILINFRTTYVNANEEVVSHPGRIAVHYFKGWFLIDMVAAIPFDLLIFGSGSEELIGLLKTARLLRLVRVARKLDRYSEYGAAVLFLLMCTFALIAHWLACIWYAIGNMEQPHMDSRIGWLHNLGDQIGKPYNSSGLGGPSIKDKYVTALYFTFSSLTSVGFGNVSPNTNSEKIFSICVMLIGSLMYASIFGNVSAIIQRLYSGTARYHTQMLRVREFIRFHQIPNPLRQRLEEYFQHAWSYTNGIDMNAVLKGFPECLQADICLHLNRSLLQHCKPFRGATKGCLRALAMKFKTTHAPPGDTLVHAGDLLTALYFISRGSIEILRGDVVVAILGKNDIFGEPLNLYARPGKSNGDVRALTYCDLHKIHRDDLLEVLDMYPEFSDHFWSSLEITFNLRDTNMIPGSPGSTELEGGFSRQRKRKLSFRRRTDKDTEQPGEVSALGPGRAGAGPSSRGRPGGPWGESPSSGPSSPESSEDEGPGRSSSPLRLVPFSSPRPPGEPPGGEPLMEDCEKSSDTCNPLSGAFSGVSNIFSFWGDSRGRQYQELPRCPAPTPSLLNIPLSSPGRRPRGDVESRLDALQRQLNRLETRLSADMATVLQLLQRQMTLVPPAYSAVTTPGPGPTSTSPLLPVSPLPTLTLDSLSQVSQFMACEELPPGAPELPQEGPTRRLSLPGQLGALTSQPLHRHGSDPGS

Row | SMILES | hERG current change (%, negative = inhibition) at 10uM [%]
1 | CCCCOc1ccc(N(CC(=O)NCc2ccccc2)C(=O)c2csnn2)cc1 | -22.1
2 | COc1ccc(C(=O)NCCn2cc(SCC(=O)N3CCOCC3)c3ccccc32)cc1 | -15
3 | COC(=O)[C@H](CCSC)NC(=O)c1cccnc1SC | 5.13
4 | NC(=O)C1CCN(c2oc(-c3ccccc3F)nc2S(=O)(=O)c2ccc(Cl)cc2)CC1 | 1.46
5 | Cc1c(N=Nc2c(O)[nH]c(=O)[nH]c2=O)c(=O)n(-c2ccccc2)n1C | 15.4
6 | CS(=O)(=O)N1CCC(Oc2ccccc2C(=O)N2CCC[C@H]2CO)CC1 | 20.5
7 | CCCCN(C)CCN1C(=O)C2C(C(=O)Nc3ccc(C)cc3)C3C=CC2(O3)C1C(=O)NC1CCCCC1 (stereo not drawn) | -26.1
8 | COc1cc(OC)cc(C(=O)NCC(=O)N2CCCCC2)c1 | 9.25
9 | Cc1cc(O)c2c(c1)C(=O)C13C(=C2O)C(=O)[C@H]2[C@@H](O)[C@@H]1[C@H]1[C@H](O)[C@@H]3C(=O)C3=C(O)c4c(O)cc(C)cc4C(=O)C312 (stereo partly drawn) | 13.9
10 | CCN(CCN(C)C)C(=O)C1CCN(S(=O)(=O)c2c(C)noc2/C=C/c2ccccc2F)CC1 | 1.98
11 | CN(Cc1ccccc1N1CCCC1)C(=O)c1cc2cc(Cl)ccc2o1 | -13.4
12 | CCCCC(=O)NS(=O)(=O)c1ccc(N=NN2CCOCC2)cc1 | 4.99
13 | C[C@@H]1O[C@@H](O[C@H]2C[C@@H](O)[C@]3(CO)[C@H]4[C@H](O)C[C@]5(C)[C@@H](C6=CC(=O)OC6)CC[C@]5(O)[C@@H]4CC[C@]3(O)C2)[C@H](O)[C@H](O)[C@H]1O | 14.6
14 | CC(C)CCN1CCC(n2nccc2NC(=O)c2ccc3c(c2)OCO3)CC1 | -5.16
15 | CC1CCCCC1NC(=O)CNC(=S)N1CC2CC(C1)c1cccc(=O)n1C2 (stereo not drawn) | 7.4
16 | O=C(O)c1cccc(NS(=O)(=O)c2ccc(Cl)c(C(=O)O)c2)c1 | 30.8
17 | COc1ccc(CNC(=O)C2CCCN(Cc3nc(-c4cccc(C)c4)oc3C)C2)cc1 (stereo not drawn) | -63.8
18 | c1ccc2c(c1)CCc1c-2nc2ccccc2c1N1CCOCC1 | -5.95
19 | COc1ccc(OC)c(NC(=O)CSc2nnc(C3CCCCC3)n2N)c1 | -17.4
20 | Cc1ccc(-c2nnn(CC(=O)N(CC(=O)NC3CCCC3)c3ccc(F)cc3)n2)o1 | 6.41
21 | COc1cc(CNCc2ccco2)ccc1OCc1ccccc1 | -23.3
22 | COc1ccccc1NS(=O)(=O)c1ccc(Cl)c(NC(=S)NC(=O)C2CCCC2)c1 | -4.67
23 | Cc1ccc(C(C(=O)NC2CCCC2)N(Cc2ccc3c(c2)OCO3)C(=O)c2snc(C(N)=O)c2N)cc1 (stereo not drawn) | 10.7
24 | CCN(CC)c1ccc(NC(=O)C2CCCN(S(=O)(=O)c3cnc[nH]3)C2)c(C)c1 (stereo not drawn) | -6.63
25 | COc1ccc(CN2CCNC(=O)C2CC(=O)NCC2CCOCC2)c(C)c1C (stereo not drawn) | -19.6
26 | O=c1[nH]c2c(Br)cnc([N+](=O)[O-])c2[nH]1 | -3.18

Row | SMILES | hERG current change (%, negative = inhibition) at 10uM [%]
27 | Cc1cc(C(=O)CN2C(=O)NC3(CCC(C)CC3)C2=O)c(C)n1C (stereo not drawn) | -7.12
28 | O=C(CNC(=O)c1ccccc1F)NCCc1ccc(Cl)cc1Cl | -0.034
29 | Fc1cnc(N2CCN(c3ccccc3)CC2)nc1N1CCN(c2ccccc2)CC1 | -18.2
30 | CC(=O)Nc1ccccc1/C=C/c1ccc2c(C)ccc(O)c2n1 | 5.05
31 | COc1cc(CCC(=O)NC2(C)CCS(=O)(=O)C2)cc(OC)c1OC (stereo not drawn) | -6.48
32 | CCOCCCn1c(SCC(=O)Nc2cccc(S(=O)(=O)NC3=NCCCCC3)c2)nc2ccccc2c1=O | -48.2
33 | Cc1ccc(NC(=O)CCC(=O)Nc2ccc(C)cc2)cc1 | 12.2
34 | CCOc1ccc(C(C)C)cc1S(=O)(=O)n1nc(C)cc1C | 0.728
35 | O=C1c2ccccc2C2NC(=O)C3(CCCCC3)N12 (stereo not drawn) | 7.54
36 | CCCn1c(SCc2ccc(C(=O)OC)o2)nc2ccccc2c1=O | -14.9
37 | CCc1cc(Br)ccc1NC(=O)C1CCCO1 (stereo not drawn) | -7.92
38 | CCCCCC(=O)N(Cc1ccccc1)c1c(N)n(CCOC)c(=O)[nH]c1=O | 12.9
39 | Oc1ccccc1CNc1nc2ccccc2n1CCN1CCCCC1 | -2.31
40 | O=C(Nc1ccccc1C(F)(F)F)c1c(F)cccc1Cl | 3.77
41 | Cc1ccc(S(=O)(=O)/N=C(\CSC(N)=O)Nc2ccccc2)cc1 | 3.04
42 | CCOc1ccc(Nc2nc(N)nc(CSC(=S)N3CCN(c4ccccc4)CC3)n2)cc1 | 17.2
43 | O=C(Nc1ccc(S(=O)(=O)Nc2ccccn2)cc1)c1ccc(Cl)cc1Cl | 2.92
44 | Cc1ccc(CS(=O)Cc2ccc(C(=O)N3CCN(c4ccc(F)cc4)CC3)o2)cc1 (stereo not drawn) | -52.9
45 | COc1ccccc1N1C(=NC(=O)CCc2ccccc2)SC2CS(=O)(=O)CC21 (stereo not drawn) | 14
46 | CCn1cc(/C=C2\SC(=O)N(CC(=O)Nc3ccc4c(c3)OCO4)C2=O)c2ccccc21 | 0.0955
47 | COc1ccc2c(=O)c3c(=O)n(Cc4ccco4)c(-c4ccc(C)cc4)nc3oc2c1 | -53.3
48 | CCC(=NCCc1c[nH]c2ccccc12)c1c(O)n(-c2ccc(C)cc2)c(=O)[nH]c1=O | 14.3
49 | CCCNC(=O)c1ccc2c(c1)ncn2-c1cc(C)cc(C)c1 | -55.1
50 | COc1cc([N+](=O)[O-])ccc1NC(=O)C1C2C=CC(C2)C1C(=O)O (stereo not drawn) | 24.3
51 | CC(/C=N/NC(=O)c1cc(-c2ccc(C)s2)[nH]n1)=C\c1ccccc1 | -0.45
